# From the supplement of paper PMC11417369
# ± gives the standard deviation of the averaged measurements. This is one part of the list.
# System: PfAP2-I AP2 domain 3 (GST-tagged)
# Assay: gcPBM binding intensity (ln(normalized median fluorescence intensity)); higher = stronger DNA binding
# In short: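 Each value is the highest Masliner-normalised natural-log median intensity across replicate spots of either orientation of a probe. The probes were primer-extended double-stranded 36-bp intergenic genomic sequences on an Agilent 4 × 180k array, alongside negative controls, exposed for 1 h to GST-tagged P. falciparum DNA-binding domains expressed in E. coli. Bound protein was picked up with Alexa488 anti-GST antibody and scanned at 488 nm.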
row,Sequence,gcPBM binding intensity (ln)
1,AAAAAATATATATTAACACACACACTAATAAAAAAA [CACACA_site8366],8.05 ± 0.64
2,AAAATTTTTTACTTTACACACATTTTGTATATTTTG [CACACA_site1730],7.92 ± 0.63
3,ATATTATTTATAAGTTGTACGGTATAATATAATATA [XGTACX_site5371],7.76 ± 0.41
4,GGGAATATATTCAATTGTACATTCTTATTTTATCCA [XGTACX_site8480],7.82 ± 0.56
5,ACGCACGAAATAAATACATGCATATTGTAAAAATTA [TGCATGCA_site310],7.84 ± 0.4
6,TCTTTTTTTTTACATACTTTTTTCCTTTTTTTTTTA [CACACA_negctrl_site1429],7.73 ± 0.65
7,TTAAATACTAAAAAGTGTACACATACATAAAAAATT [XGTACX_site6261],8.35 ± 0.6
8,ATTATGTTAATAATATGTACATATATCTACATATAT [XGTACX_site7978],7.62 ± 0.38
9,ATTATTTTGTTTATTACATGCAGGTGTATATTACAG [TGCATGCA_site723],8.98 ± 0.34
10,GAGTATATTTATATTGCACACAATTTTTTTATTTTT [CACACA_site2644],10.3 ± 0.54
11,CATAAATGTCTCACATGTACATATGCATTTTTAAAA [XGTACX_site3194],7.97 ± 0.38
12,TATATATAATATTGCACACAAAATTAAAAGTAAATA [CACACA_site19],9.81 ± 0.67
13,TGCATAAATTTATGCACACATAAAAAAAAAAAAAAA [CACACA_site2923],10 ± 0.64
14,CAACTCTTATTTAATTATATGAATTAATTTATATGA [CACACA_negctrl_site200],7.28 ± 0.36
15,AAACATTTATCAATGAATCTTTTAATAAGTGTAAAG [XGTACX_negctrl_site80],7.56 ± 0.49
16,TCATTCAGTTTTATCACACACAATCAAACATATATA [CACACA_site2742],7.96 ± 0.37
17,ATTCAATATTTATACACACACACTTTTAATAATTAA [CACACA_site7725],8.05 ± 0.55
18,ATATATATAATAAATACACACATTTATATAGATAAA [CACACA_site3254],8.03 ± 0.58
19,TCAACATTCATTGGAAGTACTCACTCCCATATAATA [XGTACX_site5211],7.55 ± 0.33
20,AATATAAGGATATATACACACATAAATACATACATA [CACACA_site7859],7.67 ± 0.59
21,TATTTTTTTAGATATACATGCAAAAACAGAAGAAAT [TGCATGCA_site283],8.24 ± 0.58
22,TGAACTTTAAACCCTGAACACACACTAATACACCCA [CACACA_site7970],8.94 ± 0.3

row,Sequence,gcPBM binding intensity (ln)
1,AATATGTCATATATGTGTACATATGCACAGATATTA [XGTACX_site951],8.45 ± 0.37
2,ATAAAAAGAAATCCAATACACACCTTCAAAATGGGT [CACACA_site1622],7.71 ± 0.72
3,TAATAAATAAATGACACACACACACCCAAAAAAAAA [CACACA_site2623],8.53 ± 0.39
4,AGCTATGTATTCTACACACACATACACCCATATATA [CACACA_site5827],8.21 ± 0.56
5,TTATTAACCTAAATTAGTACATATAATATAAAAAAT [XGTACX_site8661],7.88 ± 0.52
6,AAAATATTATCTAATTGTACTTATATAACTATATAT [XGTACX_site5699],7.64 ± 0.49
7,TTGAAATGCATGAACACACACAGCTATAAATGCATA [CACACA_site968],7.78 ± 0.45
8,ATACTAAGGAGAAAAGAAAAGTGAATTTATTCTATA [CACACA_negctrl_site1792],7.39 ± 0.67
9,AAATTTATGAACCTAGTGCAGAAATTAAAAAGATGA [GTGCAC_site9396],9.32 ± 0.16
10,AAACCGTGGGAGCACACACACACACGCGCACATATA [CACACA_site6288],8.54 ± 0.47
11,TGTTTCTAAAAAAAAGGTACACATATATATAATATA [XGTACX_site3217],7.93 ± 0.28
12,GTAACCCACCAAAATGCACACATTAAAAAAAAAAAA [CACACA_site1046],9.46 ± 0.37
13,TATATATTATATATATGTACATATTTATTTTATTTT [XGTACX_site6989],7.79 ± 0.3
14,AATACCGGAAAGCAAACACACATTTGAAAACCATAA [CACACA_site7761],7.78 ± 0.69
15,AAAAAATTTCAAATGACATAATGTAATTTCCCTTTT [GTGCAC_negctrl_site673],7.26 ± 0.69
16,TTTATCAAAATAAATGCACACAAATTGCACATATCT [CACACA_site8281],10.31 ± 0.035
17,ATAGTTTATACAAATAGTACGCACAAAAAAAAATAA [XGTACX_site6727],8.34 ± 0.28
18,TATATATAAACAAAATGTACATATTTGAGATACCCT [XGTACX_site2195],7.93 ± 0.47
19,ACACATACATACATATGTACATATATACATATATAC [XGTACX_site5559],8.45 ± 0.83
20,CAATACTATTATTATAGTACGTATAAAATTATATAT [XGTACX_site4950],7.71 ± 0.46
21,TACAAAAAAGAAGATATTCAAACAAAAACAAAAAAA [CACACA_negctrl_site1126],7.5 ± 0.56
22,AGTAAACGATGATGTTGTACAAAAAGGATAATTTAA [XGTACX_site6698],8.07 ± 0.66

row,Sequence,gcPBM binding intensity (ln)
1,TTTTTATTTTTTATGTAATTTAAATAATTATTCAAA [CACACA_negctrl_site1549],7.5 ± 0.54
2,GTATTCTTCTCTCCGTGTACATATATATGTATATAT [XGTACX_site803],8.47 ± 0.6
3,TATATATATATGCTACGTACATATATATTATATATA [XGTACX_site7894],9.1 ± 0.49
4,TATCATAATAGACACAGTACATATATGTCTTAAATT [XGTACX_site8775],7.63 ± 0.54
5,AATATCTTAGTGGATACACACATATAAATGTGTATT [CACACA_site6367],7.56 ± 0.54
6,CTTTCAATTTTTTTCTGTACCAATAAAAAATATAAA [XGTACX_site2120],7.88 ± 0.5
7,ATAATGTTTTATAATACACACATTATATATATAAAT [CACACA_site6101],8.04 ± 0.42
8,ATATTTATGTAAAAAAGTACATACAATTATATATGT [XGTACX_site3750],7.74 ± 0.4
9,GATTACAAAAAAAATACACACAAAAAAAAAAAGGAA [CACACA_site2096],7.59 ± 0.57
10,ACATGAATTTATATGTGTACTAACTATATTCTTAAA [XGTACX_site5966],7.8 ± 0.45
11,TATATACAATATAGGTGTACATTTTTTTATCTATTT [XGTACX_site8431],7.83 ± 0.53
12,TCTGGCATATAATATTGTACACATATATATATATAT [XGTACX_site8182],9.15 ± 0.45
13,TATCTGTATTTATTCACACATATAAAATATAATTAA [CACACA_site5560],7.67 ± 0.38
14,ATGAATAAATAGGTCACACACAAATATTTATAAATA [CACACA_site7186],7.8 ± 0.62
15,GATATGAATATAGGTTGTACTATATATAAAGTATGT [XGTACX_site1877],7.93 ± 0.59
16,AACGGGGGTAGTTTTATGCACACGTTTATTAATGCT [CACACA_site3173],10.16 ± 0.028
17,TATATGTTAATTTTTTTTTTTTTTTTTTTTTTTATA [CACACA_negctrl_site62],7.17 ± 0.28
18,AAAGTACAAGTATAATCACACGTGTCTATTATATAC [CACACA_site4507],7.71 ± 0.57
19,AAAAAAAAAAAAAAAACACACATTTGAAAGAAAGAA [CACACA_site3339],8.67 ± 0.41
20,TACACCCATGGACACACACACACGCATAAAAAAAAA [CACACA_site4933],8.32 ± 0.4
21,ATTTTTATTTTCTTTACACACCACATAATTTTTTTT [CACACA_site6092],8.22 ± 0.47
22,CATAAGAGGAACTTTTGTACTTATATGTATATAGTA [XGTACX_site5836],7.5 ± 0.42

row,Sequence,gcPBM binding intensity (ln)
1,TATATCGTTATATAAACACACAATATGTTTTTTATA [CACACA_site7730],7.53 ± 0.46
2,CTTTTATGAAACAGTGCACACATAAAAATATATACA [CACACA_site8981],10.7 ± 0.33
3,GCCACACTTTTCTGCACACATAAAAAATATATAAAT [CACACA_site578],9.62 ± 0.19
4,ATTTATTGACTATTTACACACATATTTATTAGAATA [CACACA_site6863],7.84 ± 0.61
5,GGGAGGATAGTTCACAGTACCCAGTAACTCTACGGA [XGTACX_site2558],7.73 ± 0.44
6,ATGATACATAAAGAATATAAAACATGAAATATAATA [CACACA_negctrl_site1461],7.64 ± 0.49
7,ATATATAATATATATGCATGTGACATTAATAATATA [TGCATGCA_site880],7.63 ± 0.49
8,ATATGAAAGGTGTACACACGCACACCCAAAAAAATA [CACACA_site2911],8.25 ± 0.3
9,TAATTTAAAAATATAAATGTTTCACTTATATATTTT [TGCATGCA_negctrl_site399],7.15 ± 0.49
10,AACTGAGAAACCGAAGTGCAATATGTATATATACAT,10.5 ± 0.2
11,TTTTTTACGCATAACTTAATATGAGAATCCCTTTCT [GTGCAC_negctrl_site522],7.71 ± 0.65
12,CCACACTTAAAATACACACACACCAAAAAAAAAAAA [CACACA_site2709],8.21 ± 0.79
13,AACACTTTAATTTATGCACACATATGGAACAACAGC [CACACA_site8241],10 ± 0.22
14,AGATATATATTTTATTGTACACATTAAAGTATAAAA [XGTACX_site7194],7.91 ± 0.24
15,AACATTTTTAGATTATATTATTAAATAAGTAACTGC [XGTACX_negctrl_site326],7.68 ± 0.44
16,TATGTATTTATATATACACACTTCTGTGATACGAAA [CACACA_site5128],7.49 ± 0.59
17,AAGTTTTTTATTTTTTGTACATAAAAAATAATAATT [XGTACX_site1755],7.76 ± 0.42
18,TTTTTGTTTTTTTTTTGTACATATATATAAAAAATA [XGTACX_site1214],7.96 ± 0.37
19,TTTTTTTTAATATTTTACATTGTCTGTTAACAAATA [CACACA_negctrl_site599],7.7 ± 0.66
20,TTTATATTTATCCAAAGTACTTTTTAAAAACATACC [XGTACX_site4518],7.91 ± 0.35
21,ATGAACATTTATAAATGTACTCACATATATATATTT [XGTACX_site6692],7.85 ± 0.47
22,AAAATAATATTTAATACACACATAATTATAATATAA [CACACA_site782],7.72 ± 0.47
